Experimental data as given in PubChem BioAssay AID1030 (National Center for Advancing Translational Sciences (NCATS), 2008).
The campaign covered roughly 220,000 compounds. About 16,000 (7.3%) were called active. The inconclusive results got no clear call from the source; some entries with a clear call stand among them for comparison. The call rests on the fitted dose curve; in most records, active means well fitted inhibition curve with a large enough effect (not every such curve was filed as active); inconclusive means small, poorly fitted or top-dose-only effect, or another doubt; inactive means no such curve, though single readings can be large or run the other way. Potencies of inconclusive entries are left out as doubtful fits.

What follows are compounds tested against Aldehyde dehydrogenase 1A1 (Homo sapiens) (UniProt P00352) (assay: qHTS Assay for Inhibitors of Aldehyde Dehydrogenase 1 (ALDH1A1)). Conditions: Purified ALDH1A1, NADH fluorescence, propionaldehyde substrate; series mostly up to 75.3 µM.
Potency means the concentration at half of the fitted maximal effect; tags describe the fitted curve by direction and shape.

Sequence of UniProt P00352 (P00352 whole entry, looked up): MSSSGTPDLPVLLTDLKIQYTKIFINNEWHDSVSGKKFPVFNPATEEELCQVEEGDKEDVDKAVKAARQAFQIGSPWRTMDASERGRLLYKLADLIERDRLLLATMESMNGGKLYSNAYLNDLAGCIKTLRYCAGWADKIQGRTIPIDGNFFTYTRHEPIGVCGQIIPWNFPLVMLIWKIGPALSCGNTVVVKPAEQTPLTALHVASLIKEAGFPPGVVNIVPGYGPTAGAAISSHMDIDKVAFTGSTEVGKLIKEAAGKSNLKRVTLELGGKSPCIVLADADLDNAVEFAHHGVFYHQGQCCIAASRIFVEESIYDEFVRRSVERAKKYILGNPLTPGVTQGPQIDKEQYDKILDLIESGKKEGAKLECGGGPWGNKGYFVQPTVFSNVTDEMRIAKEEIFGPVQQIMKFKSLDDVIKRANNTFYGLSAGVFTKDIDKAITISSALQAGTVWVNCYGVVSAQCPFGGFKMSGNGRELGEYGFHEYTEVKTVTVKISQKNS

SMILES	Potency
N#Cc1ccsc1NC(=O)c1cccc([N+](=O)[O-])c1	inconclusive [inhibitor, full curve]
CCc1ccccc1N1CC23C=CC(O2)C(C(=O)O)C3C1=O (stereo not drawn)	inactive
CSc1ccc(/C=N/NC(=O)CNc2cccc3ccccc23)cc1	inactive
Cc1cc2cc(C#N)c(NCCNC(=S)NCCCN3CCOCC3)nc2cc1C	inconclusive [inhibitor, single point]
CC(C)CNC(=O)c1ccccc1NC(=O)c1ccccc1N(C)S(=O)(=O)c1ccccc1	inactive
Cc1nnc(Sc2nc3c(c(=O)n(C)c(=O)n3C)n2Cc2ccc(Cl)cc2)s1	inactive
CC(NC(=O)COc1ccc(N(C)S(=O)(=O)c2ccccc2)cc1)c1ccccc1 (stereo not drawn)	inconclusive [inhibitor, single point]
CCSCc1nnc(SCC(=O)Nc2nccs2)n1CC	inconclusive [inhibitor, single point]
CCNC(=O)NC(=O)C(C)OC(=O)c1oc2ccc(OCC)cc2c1C (stereo not drawn)	inconclusive [inhibitor, partial curve]
COc1ccc(CNC(=O)C(OC(=O)c2ccco2)c2ccc(OC)cc2)cc1 (stereo not drawn)	active: 6.31 µM
Cc1ccc(NC(=O)CN2C(=O)N/C(=C/c3cc(C)n(-c4cccc(C(=O)O)c4)c3C)C2=O)cc1	inconclusive [inhibitor, partial curve]
CCS(=O)(=O)N1CCC(C(=O)NCCCN2CCCCCC2)CC1	inactive
COC(C)=O	inconclusive [inhibitor, full curve, poor fit]
Cc1ccc2cc(-c3noc(C(C)(C)C)n3)c(=O)[nH]c2c1	inconclusive [inhibitor, single point]
O=C(CN1CCOCC1)Nc1nc2ccc(F)cc2s1	inactive
CCOCc1cnc(C)nc1NCC(=O)c1c(C)[nH]c2ccc(OC)cc12	inconclusive [inhibitor, single point]
COc1ccc2sc(N(CCN(C)C)C(=O)c3cc(Cl)sc3Cl)nc2c1	inconclusive [inhibitor, single point]
CCCn1c2ccccc2c2nnc(SC(CC)C(=O)Nc3cc(C)on3)nc21 (stereo not drawn)	inconclusive [inhibitor, partial curve]
O=C(NCCN1CCOCC1)c1cc2sccc2n1Cc1ccc(Cl)cc1	inconclusive [inhibitor, single point]
Cc1ccccc1Cn1c(C(=O)OC(C)C)cc2c1ccn2C	inconclusive [inhibitor, single point]
Cc1onc(-c2ccccc2Cl)c1C(=O)Nc1nnc(-c2ccc(Cl)cc2Cl)s1	inconclusive [inhibitor, partial curve]
CC(=O)Oc1cccc(N2C(=O)CC(Nc3ccc(N4CCOCC4)cc3)C2=O)c1 (stereo not drawn)	inconclusive [inhibitor, single point]
CC1CCC(C(C)C)C(O)C1 (stereo not drawn)	inactive
CCOc1ccc(-c2ccc(SCC(=O)Nc3nnc(CC)s3)nn2)cc1	inconclusive [inhibitor, single point]
O=C(COc1ccccc1)N1N=C(c2cccnc2)CC1(O)C(F)(F)F (stereo not drawn)	inconclusive [inhibitor, partial curve, poor fit]

SMILES	Potency
COC(=O)C1Sc2[nH]c(=O)sc2C2c3ccccc3OC(=O)C12 (stereo not drawn)	inconclusive [inhibitor, single point]
O=C(c1ccc(Cn2c(=S)[nH]c3ccccc3c2=O)cc1)N1CCN(c2ccccn2)CC1	inconclusive [inhibitor, single point]
CN(Cc1ccccc1)c1nc2c(c(=O)[nH]c(=O)n2C)n1Cc1ccccc1Cl	inconclusive [inhibitor, partial curve]
N#CCCn1cc(C=C(C#N)C#N)c(-c2ccc(-c3ccccc3)cc2)n1	inconclusive [inhibitor, partial curve]
Cc1ccc(S(=O)(=O)Nc2ccccc2C(=O)OC(C)C(=O)Nc2ccc3ccccc3c2)cc1[N+](=O)[O-] (stereo not drawn)	inactive
CN(Cc1nc(C(c2ccccc2)c2ccccc2)no1)CC1COCCO1 (stereo not drawn)	inconclusive [inhibitor, partial curve]
CCCc1nnc(NC(=O)NCCN2C(=O)C3C4C=CC(C4)C3C2=O)s1 (stereo not drawn)	inconclusive [inhibitor, partial curve]
Cc1cc(N)c2ccccc2[n+]1CCCCCCCCCCCCCC[n+]1c(C)cc(N)c2ccccc21	inconclusive [inhibitor, partial curve]
CCOC(=O)c1c(NC(=O)CSc2nnc(-c3ccccc3C)n2C)sc(C(C)=O)c1C	active: 25.1 µM
O=C(OCc1cc2ccccc2[nH]c1=O)C1CCCO1 (stereo not drawn)	inconclusive [inhibitor, single point]
Cc1ccccc1-n1c(=O)/c(=C\c2ccco2)s/c1=C(/C#N)C(=O)Nc1ccccc1	active: 20 µM
O=C(NCCn1ccc2ccccc21)c1ccc(S(=O)(=O)N2CCOCC2)cc1	inconclusive [inhibitor, partial curve]
CCCOc1ccc(C2NC(=S)NC(C)=C2C(=O)c2ccccc2)cc1OC (stereo not drawn)	inconclusive [inhibitor, single point]
O=C(c1ccccc1Oc1ccccc1)N1CCN(c2ccccc2)CC1	active: 22.4 µM
COc1ccccc1NC(=O)CCS(=O)(=O)c1ccccc1	inactive
CC(C)c1cc(C(N)=O)c(NC(=O)c2cccc(COc3ccc(Cl)cc3)c2)s1	inconclusive [inhibitor, partial curve]
Cc1ccc(NC(=O)Cn2cccc2)cc1Cl	active: 11.2 µM
COc1cc(C2C(C#N)=C(C)NC3=C2C(=O)CC(C)(C)C3)ccc1O (stereo not drawn)	inconclusive [inhibitor, single point]
Cc1ccc(S(=O)(=O)Nc2nc(C)c(C(=O)Nc3ccccc3)s2)cc1	inactive
CN1CCN(c2ncc3nc(-c4cccs4)c(=O)n(Cc4ccc(F)cc4)c3n2)CC1	inactive
Cc1ccccc1C(=O)NC(=S)Nc1sc2c(c1C#N)CCCC2	active: 6.31 µM
CC1CN(C(=O)C(C)Sc2nnnn2C)CC(C)O1 (stereo not drawn)	inactive
O=S(=O)(NCC1COc2ccccc2O1)c1ccc2ccccc2c1 (stereo not drawn)	inconclusive [inhibitor, single point]
CCCn1c(-c2ccc(F)cc2)nc2c(NCC(C)(C)CN(C)C)nc(C)nc21	inconclusive [inhibitor, partial curve]
CCOc1ccc(S(=O)(=O)c2c(C(=O)c3ccccc3)cnc3cc4c(cc23)OCCO4)cc1	inconclusive [inhibitor, single point]

SMILES	Potency
O=C(NN=C1CCCC1)c1ccc([N+](=O)[O-])cc1	inconclusive [inhibitor, single point]
O=C(Cc1ccccc1)N1CCN=C1SCc1ccc([N+](=O)[O-])cc1	inactive
O=C(CSc1ccc(-c2ccc(F)cc2)nn1)NCC1CCCO1 (stereo not drawn)	inactive
CCOC(=O)C1C(=O)C=C(N2CCOCC2)CC1c1cccc(OC)c1 (stereo not drawn)	inactive
COc1cccc(-c2noc(C3CCCN(C(=O)Cc4ccccc4)C3)n2)c1 (stereo not drawn)	active: 12.6 µM
CC1CCCC(C)N1C(=O)Cn1cnc2cc([N+](=O)[O-])ccc2c1=O (stereo not drawn)	inactive
C=CCOC(=O)N[C@H](/C(C(=O)OC)=C(\C)NCc1ccccc1)c1ccc(Br)cc1	inconclusive [inhibitor, single point]
CCCCCCCCCCCCC/C=C/[C@@H](O)[C@H](CO)NC(=O)CCCCCCCCCCCCCCC	inactive
CCCCN(C)S(=O)(=O)c1ccc(C(=O)Nc2nnc(-c3ccco3)o2)cc1	inconclusive [inhibitor, single point]
CCCCC(C(=O)OCC)C(N)Cc1ccc(F)cc1 (stereo not drawn)	inactive
Cc1c2c(nc3ccccc13)CC(C)(C)CC2=O	active: 14.1 µM
c1ccc(-c2cnc(SCCN3CCOCC3)n2CC2CCCO2)cc1 (stereo not drawn)	active: 10 µM
COc1ccccc1N1CC(O)=C(c2nc3ccccc3s2)C1=N	inconclusive [inhibitor, partial curve]
Cc1ccc(-n2ncc3c(NNC(=O)c4ccco4)ncnc32)c(C)c1	inactive
CN(C)c1ccc(/C=N/NC(=O)CCCO)cc1	inconclusive [inhibitor, partial curve]
COc1ccc(OC(=O)COc2ccc(C)cc2)cc1	inactive
CC(C)NC(=O)CSc1nc(Cc2cccs2)nc2ccccc12	inconclusive [inhibitor, single point]
COc1ccc(CNC(=O)CCn2c(=O)oc3ccccc32)c(OC)c1	inconclusive [inhibitor, single point]
COc1ccc(CC(=O)Nc2cccc(-c3nnc(-c4ccco4)o3)c2)cc1	inconclusive [inhibitor, partial curve]
O=C(CSC1=NCCS1)Nc1nc2c(s1)CCCC2	inconclusive [inhibitor, single point]
COCCn1c(SCc2cc(=O)n3cc(C)ccc3n2)nc2ccccc2c1=O	inactive
Cc1ccc(-c2nn(-c3ccccc3)cc2/C=N/NC(=O)CSc2nnc(C)n2-c2ccccc2)cc1	inactive
O=C(c1ccc2c(c1)[nH]c(=S)n1c3ccccc3nc21)N1CCN(c2ncccn2)CC1	inactive
